{"source": "the supplement of paper PMC8728848", "binders": {"B1": {"name": "LngA (Escherichia coli) (protein)", "chain": "MLSVYNRTQKFKAEARKKIAKYHELRKQRGMSLLEVIIVLGIIGTIAAGVVILAQRAFDSRAVTDLVTNTNTVRVRMKDAYQRDGKYPDFVDPLSLTANTIKTDTSGIPAAQLVQLGKITPDEVRNNISGDFIAIGGALTSNGAQVKKGFAIELNGLSQEQCRSILGQVGNNWEYVAIGTSASGSYAMTATGVDMSVAASTTVLRSLGNNGQTTLTADKILSTCTAQVNSITLGSR"}}, "test_in_all_cases": "glycan array binding signal (z-score within array); higher = stronger binding", "details_in_all_cases": "glycan notation: IUPAC condensed, linker removed", "key": {"[1]": {"biological_target": "Neu5Ac(a2-6)Gal(b1-4)GlcNAc(b1-3)Gal(b1-4)GlcNAc(b1-3)GalNAc", "outline": "(§1)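 Columns mapping to the same glycan were averaged after glycan names were converted to IUPAC-condensed notation. The data come from 3228 arrays in the Consortium for Functional Glycomics database, limited to those with an available protein sequence. Binding is reported as a within-array Z-score averaged across arrays of one protein sequence and across linkers.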"}, "[2]": {"biological_target": "Neu5Ac(a2-6)Gal(b1-4)GlcNAc(b1-3)Gal(b1-4)GlcNAc(b1-3)[Neu5Ac(a2-6)Gal(b1-4)GlcNAc(b1-3)Gal(b1-4)GlcNAc(b1-6)]GalNAc", "outline": "as §1"}, "[3]": {"biological_target": "Neu5Ac(a2-6)Gal(b1-4)GlcNAc(b1-3)Gal(b1-4)GlcNAc(b1-6)[Gal(b1-3)]GalNAc", "outline": "as §1"}, "[4]": {"biological_target": "Neu5Ac(a2-6)Gal(b1-4)GlcNAc(b1-3)Gal(b1-4)[Fuc(a1-3)]GlcNAc(b1-3)Gal(b1-4)[Fuc(a1-3)]GlcNAc", "outline": "as §1"}, "[5]": {"biological_target": "Neu5Ac(a2-6)Gal(b1-4)GlcNAc(b1-3)GalNAc", "outline": "as §1"}, "[6]": {"biological_target": "Neu5Ac(a2-6)Gal(b1-4)GlcNAc(b1-3)[Neu5Ac(a2-6)Gal(b1-4)GlcNAc(b1-6)]GalNAc", "outline": "as §1"}, "[7]": {"biological_target": "Neu5Ac(a2-6)Gal(b1-4)GlcNAc(b1-6)GalNAc", "outline": "as §1"}, "[8]": {"biological_target": "Neu5Ac(a2-6)Gal(b1-4)GlcNAc(b1-6)[Gal(b1-3)GlcNAc(b1-3)]Gal(b1-4)Glc", "outline": "as §1"}, "[9]": {"biological_target": "Neu5Ac(a2-6)Gal(b1-4)GlcNAc(b1-6)[Gal(b1-3)]GalNAc", "outline": "as §1"}, "[10]": {"biological_target": "Neu5Ac(a2-6)Gal(b1-4)GlcNAc6S", "outline": "as §1"}, "Neu5Ac(a2-6)GalNAc": {"biological_target": "Neu5Ac(a2-6)GalNAc", "outline": "as §1"}, "[11]": {"biological_target": "Neu5Ac(a2-6)GalNAc(b1-4)GlcNAc", "outline": "as §1"}, "[12]": {"biological_target": "Neu5Ac(a2-6)GalNAc(b1-4)GlcNAc6S", "outline": "as §1"}, "[13]": {"biological_target": "Neu5Ac(a2-6)GlcNAc(b1-4)GlcNAc", "outline": "as §1"}, "[14]": {"biological_target": "Neu5Ac(a2-6)GlcNAc(b1-4)GlcNAc(b1-4)GlcNAc", "outline": "as §1"}, "Neu5Ac(a2-8)Neu5Ac": {"biological_target": "Neu5Ac(a2-8)Neu5Ac", "outline": "as §1"}, "[15]": {"biological_target": "Neu5Ac(a2-8)Neu5Ac(a2-3)Gal(b1-3)GalNAc(b1-4)[Neu5Ac(a2-3)]Gal(b1-4)Glc", "outline": "as §1"}, "[16]": {"biological_target": "Neu5Ac(a2-8)Neu5Ac(a2-3)Gal(b1-3)GalNAc(b1-4)[Neu5Ac(a2-8)Neu5Ac(a2-3)]Gal(b1-4)Glc", "outline": "as §1"}, "[17]": {"biological_target": "Neu5Ac(a2-8)Neu5Ac(a2-3)Gal(b1-4)Glc", "outline": "as §1"}, "[18]": {"biological_target": "Neu5Ac(a2-8)Neu5Ac(a2-3)Gal(b1-4)GlcNAc", "outline": "as §1"}, "[19]": {"biological_target": "Neu5Ac(a2-8)Neu5Ac(a2-3)[Gal(b1-3)GalNAc(b1-4)]Gal(b1-4)Glc", "outline": "as §1"}, "[20]": {"biological_target": "Neu5Ac(a2-8)Neu5Ac(a2-3)[GalNAc(b1-4)]Gal(b1-4)Glc", "outline": "as §1"}, "[21]": {"biological_target": "Neu5Ac(a2-8)Neu5Ac(a2-8)Neu5Ac", "outline": "as §1"}, "[22]": {"biological_target": "Neu5Ac(a2-8)Neu5Ac(a2-8)Neu5Ac(a2-3)Gal(b1-4)Glc", "outline": "as §1"}, "[23]": {"biological_target": "Neu5Ac(a2-8)Neu5Ac(a2-8)Neu5Ac(a2-3)[Gal(b1-3)GalNAc(b1-4)]Gal(b1-4)Glc", "outline": "as §1"}, "[24]": {"biological_target": "Neu5Ac(a2-8)Neu5Ac(a2-8)Neu5Ac(a2-3)[GalNAc(b1-4)]Gal(b1-4)Glc", "outline": "as §1"}, "[25]": {"biological_target": "Neu5Ac(a2-8)Neu5Ac(a2-8)Neu5Ac(a2-8)Neu5Ac(a2-3)[GalNAc(b1-4)]Gal(b1-4)Glc", "outline": "as §1"}, "[26]": {"biological_target": "Neu5Ac(a2-8)Neu5Gc(a2-3)Gal(b1-4)GlcNAc", "outline": "as §1"}, "[27]": {"biological_target": "Neu5Ac(b2-6)Gal(b1-4)GlcNAc", "outline": "as §1"}, "Neu5Ac(b2-6)GalNAc": {"biological_target": "Neu5Ac(b2-6)GalNAc", "outline": "as §1"}, "[28]": {"biological_target": "Neu5Ac9Ac(a2-3)Gal(b1-3)GlcNAc", "outline": "as §1"}, "[29]": {"biological_target": "Neu5Ac9Ac(a2-3)Gal(b1-4)GlcNAc", "outline": "as §1"}, "[30]": {"biological_target": "Neu5Ac9Ac(a2-6)Gal(b1-4)GlcNAc", "outline": "as §1"}, "[31]": {"biological_target": "Neu5Gc(a2-3)Gal(b1-3)GlcNAc", "outline": "as §1"}, "[32]": {"biological_target": "Neu5Gc(a2-3)Gal(b1-3)[Fuc(a1-4)]GlcNAc", "outline": "as §1"}, "Neu5Gc(a2-3)Gal(b1-4)Glc": {"biological_target": "Neu5Gc(a2-3)Gal(b1-4)Glc", "outline": "as §1"}, "[33]": {"biological_target": "Neu5Gc(a2-3)Gal(b1-4)GlcNAc", "outline": "as §1"}, "[34]": {"biological_target": "Neu5Gc(a2-3)Gal(b1-4)GlcNAc(b1-3)Gal(b1-4)GlcNAc(b1-2)Man(a1-3)[Neu5Gc(a2-3)Gal(b1-4)GlcNAc(b1-3)Gal(b1-4)GlcNAc(b1-2)Man(a1-6)]Man(b1-4)GlcNAc(b1-4)GlcNAc", "outline": "as §1"}, "[35]": {"biological_target": "Neu5Gc(a2-3)Gal(b1-4)[Fuc(a1-3)]GlcNAc", "outline": "as §1"}, "[36]": {"biological_target": "Neu5Gc(a2-6)Gal(b1-4)GlcNAc", "outline": "as §1"}, "Neu5Gc(a2-6)GalNAc": {"biological_target": "Neu5Gc(a2-6)GalNAc", "outline": "as §1"}, "[37]": {"biological_target": "Neu5Gc(a2-8)Neu5Ac(a2-3)Gal(b1-4)GlcNAc", "outline": "as §1"}, "[38]": {"biological_target": "Neu5Gc(a2-8)Neu5Gc(a2-3)Gal(b1-4)GlcNAc", "outline": "as §1"}, "[39]": {"biological_target": "Neu5Gc(a2-8)Neu5Gc(a2-3)Gal(b1-4)GlcNAc(b1-3)Gal(b1-4)GlcNAc", "outline": "as §1"}, "[40]": {"biological_target": "Neu5Gc(a2-8)Neu5Gc(a2-6)Gal(b1-4)GlcNAc", "outline": "as §1"}, "[41]": {"biological_target": "Neu5Gc(b2-6)Gal(b1-4)GlcNAc", "outline": "as §1"}}, "note": "Some of the results follow."}
{"binder": "B1", "values": [{"measurement": "glycan array binding signal (z-score)", "setting": "[1]", "value": -0.361}, {"measurement": "glycan array binding signal (z-score)", "setting": "[2]", "value": -0.346}, {"measurement": "glycan array binding signal (z-score)", "setting": "[3]", "value": -0.111}, {"measurement": "glycan array binding signal (z-score)", "setting": "[4]", "value": -0.37}, {"measurement": "glycan array binding signal (z-score)", "setting": "[5]", "value": -0.436}, {"measurement": "glycan array binding signal (z-score)", "setting": "[6]", "value": -0.298}, {"measurement": "glycan array binding signal (z-score)", "setting": "[7]", "value": 2.77}, {"measurement": "glycan array binding signal (z-score)", "setting": "[8]", "value": -0.407}, {"measurement": "glycan array binding signal (z-score)", "setting": "[9]", "value": 0.036}, {"measurement": "glycan array binding signal (z-score)", "setting": "[10]", "value": -0.346}, {"measurement": "glycan array binding signal (z-score)", "setting": "Neu5Ac(a2-6)GalNAc", "value": -0.334}, {"measurement": "glycan array binding signal (z-score)", "setting": "[11]", "value": -0.474}, {"measurement": "glycan array binding signal (z-score)", "setting": "[12]", "value": -0.275}, {"measurement": "glycan array binding signal (z-score)", "setting": "[13]", "value": -0.526}, {"measurement": "glycan array binding signal (z-score)", "setting": "[14]", "value": 0.517}, {"measurement": "glycan array binding signal (z-score)", "setting": "Neu5Ac(a2-8)Neu5Ac", "value": 0.85}, {"measurement": "glycan array binding signal (z-score)", "setting": "[15]", "value": -0.298}, {"measurement": "glycan array binding signal (z-score)", "setting": "[16]", "value": -0.457}, {"measurement": "glycan array binding signal (z-score)", "setting": "[17]", "value": -0.552}, {"measurement": "glycan array binding signal (z-score)", "setting": "[18]", "value": -0.195}, {"measurement": "glycan array binding signal (z-score)", "setting": "[19]", "value": -0.312}, {"measurement": "glycan array binding signal (z-score)", "setting": "[20]", "value": -0.442}, {"measurement": "glycan array binding signal (z-score)", "setting": "[21]", "value": -0.301}, {"measurement": "glycan array binding signal (z-score)", "setting": "[22]", "value": 0.154}, {"measurement": "glycan array binding signal (z-score)", "setting": "[23]", "value": -0.06}, {"measurement": "glycan array binding signal (z-score)", "setting": "[24]", "value": -0.455}, {"measurement": "glycan array binding signal (z-score)", "setting": "[25]", "value": -0.391}, {"measurement": "glycan array binding signal (z-score)", "setting": "[26]", "value": -0.319}, {"measurement": "glycan array binding signal (z-score)", "setting": "[27]", "value": -0.5}, {"measurement": "glycan array binding signal (z-score)", "setting": "Neu5Ac(b2-6)GalNAc", "value": -0.582}, {"measurement": "glycan array binding signal (z-score)", "setting": "[28]", "value": 2.04}, {"measurement": "glycan array binding signal (z-score)", "setting": "[29]", "value": -0.433}, {"measurement": "glycan array binding signal (z-score)", "setting": "[30]", "value": -0.378}, {"measurement": "glycan array binding signal (z-score)", "setting": "[31]", "value": -0.438}, {"measurement": "glycan array binding signal (z-score)", "setting": "[32]", "value": -0.476}, {"measurement": "glycan array binding signal (z-score)", "setting": "Neu5Gc(a2-3)Gal(b1-4)Glc", "value": -0.423}, {"measurement": "glycan array binding signal (z-score)", "setting": "[33]", "value": -0.48}, {"measurement": "glycan array binding signal (z-score)", "setting": "[34]", "value": -0.288}, {"measurement": "glycan array binding signal (z-score)", "setting": "[35]", "value": -0.145}, {"measurement": "glycan array binding signal (z-score)", "setting": "[36]", "value": -0.433}, {"measurement": "glycan array binding signal (z-score)", "setting": "Neu5Gc(a2-6)GalNAc", "value": -0.32}, {"measurement": "glycan array binding signal (z-score)", "setting": "[37]", "value": -0.561}, {"measurement": "glycan array binding signal (z-score)", "setting": "[38]", "value": -0.576}, {"measurement": "glycan array binding signal (z-score)", "setting": "[39]", "value": -0.545}, {"measurement": "glycan array binding signal (z-score)", "setting": "[40]", "value": -0.363}, {"measurement": "glycan array binding signal (z-score)", "setting": "[41]", "value": -0.329}]}
